The values below come from article PMC13541613.

This is a selection; strong and weak results do not stand in their true shares. At the low end of the ranking the order means little.

One assay concerns the target ZNF721 DBD1 (UniProt Q8TF20-2). As to the kind of experiment: HT-SELEX. Particulars: 20 mM HEPES pH 7, 140 mM KCl, 5 mM NaCl, 1 mM K2HPO4, 2 mM MgSO4, 100 uM EGTA, ZnSO4, 0.1% Tween20; room temperature, 1 h; high values mean tight binding; double strand, one strand shown.
The sequence CCCCCGCTCC had a binding signal (relative 10-mer count) of 0.0033. Take AAAGCAGCCC: the binding signal (relative 10-mer count) turned out to be 0.00225. Consider GAAAACAGCA, for which the binding signal (relative 10-mer count) is 0.000688.

Take CCTCCCCTCC: the binding signal (relative 10-mer count) was found to be 0.00812. With GCCCCCGCCC, the binding signal (relative 10-mer count) was 0.00527. In the case of CCTCCTCCCC, the binding signal (relative 10-mer count) was 0.00881.

In turn, AACCCACCCC returned a binding signal (relative 10-mer count) of 0.00596.

AAACAGCGTC: the binding signal (relative 10-mer count) was 0.00078. Same read-out and setting: in the case of CCCCTCCACC it was 0.0117. The same measure, in the same setting: in the case of AAACAGCACT it was 0.000183; in that of CCACCCCCCC, 0.0122; in that of CTGTTTTTTA, 0.000596. On the same count and under the same terms, then ACAGCATCCC, with 0.000688. The sequence AAACAGTGTC gave a binding signal (relative 10-mer count) of 0.000183. As to ACTGTTTTTC, the binding signal (relative 10-mer count) came out at 0.000917. Still for that read-out and setting: in the case of AATAAAACAG it was 0.000275. On the same count and under the same terms, in the case of CCTCCCCCTC it was 0.00807; in that of AAAAGCTATC, 0.129; in that of CCTACCCCCC, 0.00555. Still for that read-out and setting: then CCCCTCGCCC, with 0.00665.

AGAGTACCCA had a binding signal (relative 10-mer count) of 0.000459. On the same count and under the same terms, then AAAACAGTGC, with 0.00055. The same measure, in the same setting: then AAAAGCTATA, with 0.0882.

The sequence CCAAAAAACA yielded a binding signal (relative 10-mer count) of 0.00174.

As for AAAACAGTAC, the binding signal (relative 10-mer count) was determined as 0.000367. As to AGCAGTGTTG, the binding signal (relative 10-mer count) came out at 0.000596. CAAAAACAGC yielded a binding signal (relative 10-mer count) of 0.000642. The same measure, in the same setting: then AAAGGAACAG, with 0.000596; and ACAGTGTCTC, with 0.000229. Sequence CCACCCAGCC registered a binding signal (relative 10-mer count) of 0.00294. Still for that read-out and setting: in the case of ACAGCGTTTC it was 0.000229.

A further assay addresses ZNF721 DBD2 (UniProt Q8TF20-2). As to the kind of experiment: HT-SELEX. Particulars: 20 mM HEPES pH 7, 140 mM KCl, 5 mM NaCl, 1 mM K2HPO4, 2 mM MgSO4, 100 uM EGTA, ZnSO4, 0.1% Tween20; room temperature, 1 h; high values mean tight binding; double strand, one strand shown.
In turn, CCCCCGCTCC came in with a binding signal (relative 10-mer count) of 0.00144.

In turn, AACCCACCCC showed a binding signal (relative 10-mer count) of 0.000719. Same read-out and setting: then AAGCTATACC, with 0.000839; and ATGTGTATGA, with 0.0018.

The sequence CACCCCACCC came in with a binding signal (relative 10-mer count) of 0.0036. As for AAAAGCTATA, the binding signal (relative 10-mer count) came out at 0.000599. CCCCGGCCCC yielded a binding signal (relative 10-mer count) of 0.00036. With AGTATGAAGC, the binding signal (relative 10-mer count) worked out at 0.000599. ACTTCATACC: the binding signal (relative 10-mer count) was 0.000479. The sequence CCCGCACCCC showed a binding signal (relative 10-mer count) of 0.000959.
